# Results: the supplement of paper PMC4967469
# By IC50 is meant the dose at which the fit gives 50% viability; a fit beyond the top or the lowest dose is shown as a bound at that dose. AUC is the area under the same curve over the 256-fold range up to the top dose, as a fraction; values near 1 show little effect. For some of these results: Where the top dose is marked as inferred, it is not printed in the source and was worked back from the curve model.
# Experiments:
# Assay in all cases: Viability of human cancer cell lines after 72 h of drug (GDSC screen)
# [1] = compound: COc1ccc(C(=O)CC2(O)C(=O)Nc3c(Cl)ccc(Cl)c32)cc1 [YK 4-279]; settings: top dose 10 µM
# Experimental: (§1)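 Human cancer cell lines in 384-well plates, medium with 10% serum, drug for 72 h over a 256-fold dose range (nine 2-fold or five 4-fold steps up to the top dose). Adherent lines were fixed and stained with the nucleic acid dye Syto60, suspension lines read with resazurin; signal relative to control wells, capped at 0 and 100%. One two-parameter sigmoid per drug and line, fitted in a mixed model over all curves with the slope shared within a line.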
# [2] = compound: NC(=O)Nc1cc(-c2cccc(F)c2)sc1C(=O)N[C@H]1CCCNC1 [AZD7762]; settings: top dose 2 µM
# Experimental: as §1
# [3] = compound: COc1cc([C@@H]2c3cc4c(cc3[C@@H](O[C@@H]3O[C@@H]5CO[C@@H](C)O[C@H]5[C@H](O)[C@H]3O)[C@H]3COC(=O)[C@H]23)OCO4)cc(OC)c1O [Etoposide]; settings: top dose 16 µM
# Experimental: as §1
# [4] = compound: O=C(O)c1ccc(-c2c[nH]c3ncc(-c4ccccc4)cc23)cc1C1CCCC1 [GSK-650394]; settings: top dose 16 µM; top dose inferred
# Experimental: as §1
# [5] = compound: Oc1nc(-c2ccc(C(F)(F)F)cc2)nc2c1CSCC2 [XAV 939]; settings: top dose 5 µM; top dose inferred
# Experimental: as §1
# [6] = compound: COc1cc(C(=O)NC2CCN(C)CC2)ccc1Nc1ncc2c(n1)N(C1CCCC1)C(C)CC(=O)N2C [NPK76-II-72-1]; settings: top dose 10.24 µM; top dose inferred
# Experimental: as §1
# [7] = compound: Cc1ccc2nc(NCCN)c3ncc(C)n3c2c1 [BMS-345541]; settings: top dose 16 µM
# Experimental: as §1
# [8] = compound: C=C(c1ccc(C(=O)O)cc1)c1cc2c(cc1C)C(C)(C)CCC2(C)C [Bexarotene]; settings: top dose 8 µM
# Experimental: as §1
Cell Line,AUC [1],IC50 [1] [µM],AUC [2],IC50 [2] [µM],AUC [3],IC50 [3] [µM],AUC [4],IC50 [4] [µM],AUC [5],IC50 [5] [µM],AUC [6],IC50 [6] [µM],AUC [7],IC50 [7] [µM],AUC [8],IC50 [8] [µM]
"DK-MG (glioma, adherent)",0.862,> 10,0.888,> 2,0.955,> 16,0.969,> 16,0.922,> 5,0.935,> 10.2,0.972,> 16,–,–
"Daoy (medulloblastoma, adherent)",0.576,0.987,0.708,–,0.328,0.35,–,–,0.967,> 5,0.741,2.89,0.886,14.8,0.792,3.24
"EW-13 (Ewing sarcoma, suspension)",0.981,> 10,0.951,> 2,0.213,0.129,0.665,–,0.981,> 5,0.591,1.17,0.636,2.47,–,–
"G-MEL (melanoma, adherent)",0.521,0.714,0.48,0.11,0.754,5.31,0.681,3.18,0.984,> 5,0.975,> 10.2,0.881,> 16,–,–
"GA-10 (Burkitt lymphoma, suspension)",0.77,3.23,0.536,0.154,0.206,0.164,–,–,0.987,> 5,–,–,–,–,–,–
"H4 (glioma, adherent)",0.546,0.832,0.609,0.248,0.353,0.394,–,–,0.983,> 5,0.947,> 10.2,0.917,> 16,0.961,> 8
"H2373 (mesothelioma, adherent)",0.906,> 10,0.719,0.622,0.812,11.4,0.932,> 16,–,–,0.976,> 10.2,0.917,> 16,–,–
"HCC1419 (breast, adherent)",0.938,> 10,0.976,> 2,0.978,> 16,0.982,> 16,0.98,> 5,0.971,> 10.2,0.929,> 16,–,–
"Hs746T (stomach, adherent)",0.799,6.82,0.607,0.274,0.978,> 16,–,–,0.968,> 5,0.905,> 10.2,0.776,8.79,–,–
"KARPAS-231 (B-cell leukaemia, suspension)",0.75,2.63,0.224,0.0252,0.358,0.447,0.704,3.21,0.991,> 5,–,–,–,–,–,–
"KASUMI-1 (acute myeloid leukaemia, suspension)",0.723,2.7,0.057,< 0.00781,0.546,1.34,–,–,0.917,> 5,–,–,0.635,2.36,–,–
"KP-1N (pancreas, adherent)",0.766,3.85,0.972,> 2,0.637,2.44,0.836,11.3,0.984,> 5,–,–,0.71,4.06,–,–
"KP-2 (pancreas, adherent)",0.795,5.07,0.838,1.51,0.796,8.2,0.957,> 16,0.874,> 5,0.952,> 10.2,0.879,> 16,–,–
"KP-3 (pancreas, adherent)",0.865,> 10,0.706,0.538,0.932,> 16,0.931,> 16,0.95,> 5,0.93,> 10.2,0.888,> 16,–,–
"MG-63 (osteosarcoma, adherent)",0.762,4.11,0.892,> 2,0.512,1.09,0.759,6.45,–,–,0.984,> 10.2,0.984,> 16,–,–
"OVCAR-3 (ovary, adherent)",0.613,1.32,–,–,0.886,> 16,0.934,> 16,0.951,> 5,0.986,> 10.2,0.965,> 16,0.929,> 8
"PANC-08-13 (pancreas, adherent)",0.832,9,0.746,0.792,0.949,> 16,0.983,> 16,0.926,> 5,0.904,> 10.2,0.911,> 16,–,–
"PANC-10-05 (pancreas, adherent)",0.837,9.6,–,–,0.619,2.34,0.788,9.26,0.901,> 5,0.939,> 10.2,0.892,> 16,0.937,> 8
"PCI-38 (head and neck, adherent)",0.623,1.36,–,–,0.942,> 16,0.985,> 16,0.91,> 5,0.883,> 10.2,0.838,10.9,0.983,> 8
"PL18 (pancreas, adherent)",0.961,> 10,–,–,0.43,0.646,0.882,> 16,0.942,> 5,0.971,> 10.2,0.885,> 16,0.941,> 8
